Consider 56 molecules from paper PMC4336329 (PLoS ONE, 2015).

Out of some 310,000 compounds screened, about 2,200 (0.71%) showed an effect of 50% or more. Effects have a minus sign here. The list shows a part of the results.

The assay deals with human ether-à-go-go-related gene (hERG) potassium channel (human, UniProt Q12809). The assay can be described thus: primary screen, population patch clamp on CHO cells stably expressing hERG.
Chain of human ether-à-go-go-related gene (hERG) potassium channel (Q12809 whole entry, looked up): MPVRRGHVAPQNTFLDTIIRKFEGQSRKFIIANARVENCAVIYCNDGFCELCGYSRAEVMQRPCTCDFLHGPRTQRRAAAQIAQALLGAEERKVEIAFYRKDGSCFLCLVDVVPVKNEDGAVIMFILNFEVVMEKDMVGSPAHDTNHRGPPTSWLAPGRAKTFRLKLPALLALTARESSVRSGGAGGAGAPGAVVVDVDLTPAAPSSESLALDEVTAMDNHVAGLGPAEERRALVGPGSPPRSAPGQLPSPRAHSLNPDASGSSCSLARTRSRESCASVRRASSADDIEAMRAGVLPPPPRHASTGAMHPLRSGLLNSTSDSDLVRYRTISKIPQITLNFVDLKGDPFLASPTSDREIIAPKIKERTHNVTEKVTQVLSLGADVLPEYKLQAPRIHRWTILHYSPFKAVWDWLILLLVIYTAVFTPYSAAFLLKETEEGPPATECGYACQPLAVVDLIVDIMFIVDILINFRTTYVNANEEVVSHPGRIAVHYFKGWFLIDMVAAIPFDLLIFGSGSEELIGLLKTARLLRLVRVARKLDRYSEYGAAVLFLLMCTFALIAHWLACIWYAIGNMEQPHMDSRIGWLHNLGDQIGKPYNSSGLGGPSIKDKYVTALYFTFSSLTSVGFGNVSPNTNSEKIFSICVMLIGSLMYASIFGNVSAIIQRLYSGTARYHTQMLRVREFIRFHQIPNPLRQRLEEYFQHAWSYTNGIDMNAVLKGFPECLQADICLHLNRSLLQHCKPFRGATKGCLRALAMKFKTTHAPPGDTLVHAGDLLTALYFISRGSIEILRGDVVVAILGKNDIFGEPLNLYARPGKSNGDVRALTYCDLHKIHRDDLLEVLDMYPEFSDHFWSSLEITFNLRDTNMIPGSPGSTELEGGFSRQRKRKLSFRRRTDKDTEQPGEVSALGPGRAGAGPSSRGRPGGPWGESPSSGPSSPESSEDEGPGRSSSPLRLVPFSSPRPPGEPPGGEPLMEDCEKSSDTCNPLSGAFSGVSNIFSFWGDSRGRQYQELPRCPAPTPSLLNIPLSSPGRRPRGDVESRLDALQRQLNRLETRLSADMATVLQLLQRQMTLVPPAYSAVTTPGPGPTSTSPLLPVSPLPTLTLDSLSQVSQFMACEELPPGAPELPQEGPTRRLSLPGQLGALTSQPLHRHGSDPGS
Consider `CC(=O)Oc1ccc(-c2cccc(C(=O)N3CCCCC3)c2)cc1`, for which the “hERG current change (%, negative = inhibition) at 1uM” value came to 11.4%.
Then `CCOC(=O)C1CCN(/C=C2/C(=O)NC(=O)N(Cc3ccco3)C2=O)CC1`, with 15.7%; and `CCCS(=O)(=O)N1CCC(C(=O)N2CCN(C(=O)OCC)CC2)CC1`, with 12.2%.
Next, `CC#CP(=O)(OC)C(O)(CF)c1ccccc1` (centres unmarked): 1.58%.
Then `CCCCn1c(N)c(N(CC)C(=O)c2ccccc2C)c(=O)[nH]c1=O`, with 9.7%; and `Cc1oc(-c2ccc(Cl)cc2)nc1CN1CCCC(C(=O)NC2CC2)C1` (centres unmarked), with -18.2%.
Take `COc1ccccc1Nc1nc(N)nc(CN2CCN(c3ccccc3F)CC2)n1`: the “hERG current change (%, negative = inhibition) at 1uM” value was -9.68%.
Regarding `COc1ccc(C2CC(C(F)(F)F)n3nc(C(=O)Nc4c(C)n(C)n(-c5ccccc5)c4=O)c(Cl)c3N2)cc1` (centres unmarked), the “hERG current change (%, negative = inhibition) at 1uM” value is reported as 1.48%.
Next, `O=C(NCc1ccc(S(=O)(=O)NC2CCCCC2)s1)c1ccccc1`: 16.9%.
Next, `COc1ccc(C(NC(=O)N2CC(C)OC(C)C2)C(Cl)(Cl)Cl)cc1F` (centres unmarked): 3.07%; `CC(C)(C)NS(=O)(=O)c1cnc(Cl)c(Cl)c1`: 9.38%; `Cc1ccc(NC(=O)c2ccc3snnc3c2)cc1`: 7.39%.
Then `CCOC(=O)C1CCCN(c2c(NCCc3ccc(S(N)(=O)=O)cc3)c(=O)c2=O)C1` (centres unmarked), with 6.24%; and `CCCCS(=O)c1c(O)c2ccccc2[nH]c1=O` (centres unmarked), with 7.52%.
Consider `COc1ccc(C2=NCC(CSc3nccc(=O)[nH]3)S2)cc1` (centres unmarked), for which the “hERG current change (%, negative = inhibition) at 1uM” value is recorded as 11.8%.
`CC1CCC2(CC1)NC(=O)N(CC(=O)c1cn(CCC#N)c3ccccc13)C2=O` (centres unmarked): the “hERG current change (%, negative = inhibition) at 1uM” value is -1.41%.
Next, `Cn1c2c(c(=O)[nH]c1=O)C(c1ccc(O)cc1)C1=C(N2)c2ccccc2C1=O` (centres unmarked): 8.46%.
Then `Cc1cc(/N=C/N(C)C)on1`, with 22.8%; and `Cc1ccc(S(=O)(=O)N(C)CC(=O)Nc2nnc(CC(C)C)s2)cc1`, with 8.58%.
For the molecule `O=S1(=O)NC(C2CC2c2ccccc2)CCO1` (centres unmarked), the “hERG current change (%, negative = inhibition) at 1uM” value is on record as 10.8%.
`CC(O)(CS(=O)(=O)Cc1ccccc1)C(=O)Nc1ccc(C(F)(F)F)cc1` (centres unmarked): the “hERG current change (%, negative = inhibition) at 1uM” value came to 7.61%.
Then `C/C(=C\C(=O)c1ccc(C)cc1)Nc1cccc(O)c1`, with 11.3%; and `COC(=O)Cn1ncc2c3ccccc3n(C)c2c1=O`, with 10.8%.
Then `CCCC(C(=O)NC1CCCC1)N(C(=O)c1snc(C(N)=O)c1N)c1ccc(OCC)cc1` (centres unmarked), with -2.7%.
Then `CC(=O)N1CCc2c(sc(NC(=O)CCS(=O)(=O)c3ccccc3)c2C(N)=O)C1`, with 10.6%; and `COc1ccc(-c2csc(N(CCCN(C)C)C(=O)c3ccc(C(C)(C)C)cc3)n2)cc1.Cl`, with 18.1%.
For `O=C(CSc1nncn1-c1cccnc1)N(c1ccccc1)c1ccccc1`, the “hERG current change (%, negative = inhibition) at 1uM” value was 12.5%.
Next, `Cc1cc(C)c2sc(NC(=O)c3ccc([N+](=O)[O-])o3)nc2c1`: -4.73%; `CCOC(=O)NC(=O)c1cn(N(C)c2ncc(C(F)(F)F)cc2Cl)c(=O)[nH]c1=O`: 20.3%.
Regarding `O=C(NNC(=S)NC1CC2C=CC1C2)c1ccncc1` (centres unmarked), the “hERG current change (%, negative = inhibition) at 1uM” value was 15.6%.
Then `COc1ccc2cc(CN(CC3COCCO3)S(=O)(=O)c3ccc(Cl)cc3)c(=O)[nH]c2c1` (centres unmarked), with 6.36%; and `CCc1ccc(OCc2nnc(SCC(=O)Nc3cccc(C(=O)N4CCOCC4)c3)o2)cc1`, with 1.08%.
Next, `N#Cc1ccc(N/N=C/c2cn(-c3ccccc3)nc2-c2ccccc2)c([N+](=O)[O-])c1`: 4.22%; `Cc1nn(-c2ccccc2)c(C)c1/C=N\NS(=O)(=O)c1ccc(Cl)cc1`: -2.47%.
Next, `O=C(CCNS(=O)(=O)c1ccc(Br)cc1)NCCCSc1ccccc1`: 12.1%; `O=C(N/N=C/c1ccccc1O)C(=O)N1CCCCCC1`: 6.84%; `COc1cccc(CNCCO)c1OCc1ccc(Cl)cc1.Cl`: 13.8%.
Regarding `Cc1cc2oc(=O)cc(CN3CCCCC3C)c2c(C)c1Cl` (centres unmarked), the “hERG current change (%, negative = inhibition) at 1uM” value amounted to 7.23%.
`CSc1ccc(C(=O)C2CCCN(CCCn3cccn3)C2)cc1` (centres unmarked): the “hERG current change (%, negative = inhibition) at 1uM” value was -78.3%.
Next, `Cn1c(O)c(C(=O)c2ccccc2Cl)c(=O)n(C)c1=O`: 2.11%; `Cc1cc(C)n(CCC(=O)N2CCc3ccccc32)n1`: 5.51%.
Then `Nc1ncc(Br)cc1S(=O)(=O)NCCC(=O)N1CCN(c2ccccn2)CC1`, with -14.1%; and `CC(=O)N/C(=C\c1ccc2c(c1)OCO2)C(=O)NC(C(=O)O)c1ccccc1` (centres unmarked), with 17.4%.
Take `Cc1onc(-c2ccccc2)c1NC(=O)Nc1c(-c2ccccc2)noc1C`: the “hERG current change (%, negative = inhibition) at 1uM” value is 5.94%.
`CC(=O)c1cccc(NC(=S)NC2CCCCCCC2)c1`: the “hERG current change (%, negative = inhibition) at 1uM” value worked out at 11.7%.
Next, `O=C(c1ccccc1)C1CCc2occc2C1=O` (centres unmarked): -2.9%; `Nc1nc(SCC(=O)Nc2ccccc2C(F)(F)F)[nH]c(=O)c1-c1ccccc1`: 9.85%.
Next, `O=C(Nc1cccc(C(=O)O)c1)/C(=C/c1ccc2c(c1)OCO2)NC(=O)c1cccc(Br)c1`: 9.96%; `Cc1nc(N2CCN(c3ccccc3)CC2)[nH]c(=O)c1C`: 3.65%.
Then `Cn1cccc1Cc1nnc(SCC(=O)N2CCOCC2)n1-c1ccc(F)cc1`, with 11.1%.
Turning to `CN(NC(=O)COc1ccccc1)C1=NS(=O)(=O)c2ccccc21`, the “hERG current change (%, negative = inhibition) at 1uM” value was found to be 16.1%.
Then `CCOC(=O)[C@@H]1[C@H]2COc3ccc(Br)cc3[C@H]2N2C(=O)N(c3ccc(F)cc3)C(=O)[C@@]12C`, with 7.35%; and `COc1ccc(C(C(=O)NC(C)(C)C)N(C(=O)CCC(=O)Nc2cc(C)on2)c2cccc(C)c2C)cc1` (centres unmarked), with 11.8%.
With `Cn1c(OCc2ccco2)nc2c1c(=O)n(Cc1ccc(Cl)c(Cl)c1)c(=O)n2C`, the “hERG current change (%, negative = inhibition) at 1uM” value was 6.62%.
In the case of `c1ccc2c(c1)cnc1ccccc12`, the “hERG current change (%, negative = inhibition) at 1uM” value is reported as 11.6%.
Next, `CCN(C(=O)c1cc2ccccc2oc1=O)c1ccccc1`: 7.88%.
